Data reported in the supplement of paper PMC12217912.
The other results are listed elsewhere or left out. The full chains were built here from the parent and the listed change. Inactive controls read about 0.05.

B1: TEV protease; numbered along this chain (parent)
chain: MGESLFKGPRDYNPISSSICHLTNESDGHTTSLYGIGFGPFIITNKHLFRRNNGTLVVQSLHGVFKVKDTTTLQQHLVDGRDMIIIRMPKDFPPFPQKLKFREPQREERICLVTTNFQTKSMSSMVSDTSCTFPSGDGIFWKHWIQTKDGQCGSPLVSTRDGFIVGIHSASNFTNTNNYFTSVPKNFMELLTNQEAQQWVSGWRLNADSVLWGGHKVFMVKPEEPFQPVKEATQL

Variants of: B1
Experiment: raw area under fraction-flipped curve 0-4 h after induction (AUC4h, not background-subtracted), DNA-recorder readout of cleavage of the substrate (dimensionless); higher = more cleavage of the substrate by the protease variant
Conditions: temperature: 34 °C; time window: 0-4 h after rhamnose induction
Protocol: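 In vivo DNA recorder in E. coli TOP10(DE3) ΔrhaA at 34 °C. Each TEVp single-site mutant (parent TEVp 0) is paired with a single-site variant of the 7-mer TEVs (canonical ENLYFQ|S). The substrate sits between flexible linkers in a Bxb1-sfGFP-TEVs-SsrA fusion, so cleavage stabilises Bxb1 and speeds flipping of a recombination array, read by NGS. The value is the raw area under the fraction-flipped curve over 0-4 h after rhamnose induction (AUC4h), with ≥20 reads per time point. It is not background-subtracted; inactive controls average about 0.047.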
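Also: Bxb1 expression induced with 0.2% (w/v) L-rhamnose at OD600 near 0.5, cultures sampled hourly, flipped fraction per protease–substrate barcode pair counted by paired-end Illumina sequencing.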

Variant | area with substrate CNLYFQS | area with substrate DNLYFQS | area with substrate FNLYFQS | area with substrate GNLYFQS | area with substrate INLYFQS | area with substrate KNLYFQS | area with substrate NNLYFQS | area with substrate PNLYFQS | area with substrate SNLYFQS | area with substrate TNLYFQS | area with substrate WNLYFQS | area with substrate HNLYFQS | area with substrate LNLYFQS | area with substrate MNLYFQS | area with substrate VNLYFQS | area with substrate YNLYFQS | area with substrate RNLYFQS | area with substrate QNLYFQS
MGESLFKGPRDYNPISSSICHLTNESDGHTTSLYGIGFGPFIIGNKHLFRRNNGTLVVQSLHGVFKVKDTTTLQQHLVDGRDMIIIRMPKDFPPFPQKLKFREPQREERICLVTTNFQTKSMSSMVSDTSCTFPSGDGIFWKHWIQTKDGQCGSPLVSTRDGFIVGIHSASNFTNTNNYFTSVPKNFMELLTNQEAQQWVSGWRLNADSVLWGGHKVFMVKPEEPFQPVKEATQL [T44G] | 0.0596 | 0.0516 | 0.0611 | 0.0509 | 0.0322 | 0.0903 | 0.0337 | 0.0569 | 0.0582 | 0.0499 | 0.052 |  |  |  |  |  |  | 
MGESLFKGPRDYNPISSSICHLTNESDGHTTSLYGIGFGPFQITNKHLFRRNNGTLVVQSLHGVFKVKDTTTLQQHLVDGRDMIIIRMPKDFPPFPQKLKFREPQREERICLVTTNFQTKSMSSMVSDTSCTFPSGDGIFWKHWIQTKDGQCGSPLVSTRDGFIVGIHSASNFTNTNNYFTSVPKNFMELLTNQEAQQWVSGWRLNADSVLWGGHKVFMVKPEEPFQPVKEATQL [I42Q] | 0.0365 | 0.0369 | 0.0326 | 0.0426 | 0.0466 |  |  | 0.0323 |  | 0.049 | 0.0405 | 0.0308 | 0.0497 | 0.037 | 0.0397 | 0.0579 |  | 
MGESLFKGPRDYNPISSSICHLTNESDGHTTSLYGIVFGPFIITNKHLFRRNNGTLVVQSLHGVFKVKDTTTLQQHLVDGRDMIIIRMPKDFPPFPQKLKFREPQREERICLVTTNFQTKSMSSMVSDTSCTFPSGDGIFWKHWIQTKDGQCGSPLVSTRDGFIVGIHSASNFTNTNNYFTSVPKNFMELLTNQEAQQWVSGWRLNADSVLWGGHKVFMVKPEEPFQPVKEATQL [G37V] | 0.0527 | 0.071 |  | 0.0421 | 0.064 | 0.0593 |  |  | 0.0594 | 0.0531 | 0.0412 | 0.0554 |  | 0.0532 | 0.0573 |  | 0.0579 | 
MGESLFKGPRDYNPISSSICHLTNESDGHTTSLYGIMFGPFIITNKHLFRRNNGTLVVQSLHGVFKVKDTTTLQQHLVDGRDMIIIRMPKDFPPFPQKLKFREPQREERICLVTTNFQTKSMSSMVSDTSCTFPSGDGIFWKHWIQTKDGQCGSPLVSTRDGFIVGIHSASNFTNTNNYFTSVPKNFMELLTNQEAQQWVSGWRLNADSVLWGGHKVFMVKPEEPFQPVKEATQL [G37M] | 0.0544 | 0.102 | 0.0512 |  | 0.0684 | 0.0364 | 0.059 | 0.0452 |  | 0.0569 | 0.0366 | 0.0469 | 0.0457 | 0.0795 | 0.062 | 0.0552 |  | 
MGESLFKGPRDYNPISSSICHLTNESDGHTTSLYGIGFGPTIITNKHLFRRNNGTLVVQSLHGVFKVKDTTTLQQHLVDGRDMIIIRMPKDFPPFPQKLKFREPQREERICLVTTNFQTKSMSSMVSDTSCTFPSGDGIFWKHWIQTKDGQCGSPLVSTRDGFIVGIHSASNFTNTNNYFTSVPKNFMELLTNQEAQQWVSGWRLNADSVLWGGHKVFMVKPEEPFQPVKEATQL [F41T] | 0.0889 | 0.0691 |  | 0.0588 |  | 0.069 | 0.0792 | 0.0542 |  |  |  | 0.0593 | 0.0722 | 0.0502 |  | 0.0757 |  | 0.0585
MGESLFKGPRDYNPISSSICHLTNESDGHTTSLYGIGFGPFIWTNKHLFRRNNGTLVVQSLHGVFKVKDTTTLQQHLVDGRDMIIIRMPKDFPPFPQKLKFREPQREERICLVTTNFQTKSMSSMVSDTSCTFPSGDGIFWKHWIQTKDGQCGSPLVSTRDGFIVGIHSASNFTNTNNYFTSVPKNFMELLTNQEAQQWVSGWRLNADSVLWGGHKVFMVKPEEPFQPVKEATQL [I43W] | 0.0521 | 0.048 | 0.0624 | 0.0473 | 0.0422 | 0.0534 | 0.0492 | 0.0371 |  | 0.0401 | 0.0513 | 0.0521 | 0.0613 |  |  |  |  | 0.0535
MGESLFKGPRDYNPISSSICHLTNESDGHTTSLYGIGFGPFIFTNKHLFRRNNGTLVVQSLHGVFKVKDTTTLQQHLVDGRDMIIIRMPKDFPPFPQKLKFREPQREERICLVTTNFQTKSMSSMVSDTSCTFPSGDGIFWKHWIQTKDGQCGSPLVSTRDGFIVGIHSASNFTNTNNYFTSVPKNFMELLTNQEAQQWVSGWRLNADSVLWGGHKVFMVKPEEPFQPVKEATQL [I43F] | 0.0509 | 0.0651 |  | 0.0676 | 0.0552 | 0.0552 | 0.0443 | 0.0602 | 0.0502 | 0.0624 | 0.0592 | 0.063 | 0.0531 | 0.0492 |  | 0.0377 |  | 0.0609
MGESLFKGPRDYNPISSSICHLTNESDGHTTSLYGIGFGPFIGTNKHLFRRNNGTLVVQSLHGVFKVKDTTTLQQHLVDGRDMIIIRMPKDFPPFPQKLKFREPQREERICLVTTNFQTKSMSSMVSDTSCTFPSGDGIFWKHWIQTKDGQCGSPLVSTRDGFIVGIHSASNFTNTNNYFTSVPKNFMELLTNQEAQQWVSGWRLNADSVLWGGHKVFMVKPEEPFQPVKEATQL [I43G] | 0.0497 | 0.0448 | 0.035 |  |  |  | 0.0435 | 0.0494 | 0.0557 | 0.0411 | 0.0386 | 0.047 | 0.0522 | 0.0619 |  | 0.0471 |  | 
MGESLFKGPRDYNPISSSICHLTNESDGHTTSLYGIGFGYFIITNKHLFRRNNGTLVVQSLHGVFKVKDTTTLQQHLVDGRDMIIIRMPKDFPPFPQKLKFREPQREERICLVTTNFQTKSMSSMVSDTSCTFPSGDGIFWKHWIQTKDGQCGSPLVSTRDGFIVGIHSASNFTNTNNYFTSVPKNFMELLTNQEAQQWVSGWRLNADSVLWGGHKVFMVKPEEPFQPVKEATQL [P40Y] | 0.0646 | 0.0557 | 0.0705 | 0.0621 |  | 0.0686 | 0.0208 | 0.0704 |  | 0.0807 | 0.052 | 0.064 | 0.0549 | 0.0712 |  | 0.0518 | 0.0504 | 0.0457
